Laboratory results taken from article PMC10232262.

Molecular target: HA-CaM (UniProt P0DP23)
Test: co-IP; co-immunoprecipitation with CaM in the presence of Ca2+

relative band density (in Ca2+, against Ca2+-free = 1.0) (relative to the first band): 0.65
Substance: Myc-IQGAP1 (pCDNA3-Myc-IQGAP1) (a stretch of the chain, chain not printed) (natural protein; other documents disagree on this pair)
